# Laboratory results as given in PubChem BioAssay AID1030 (National Center for Advancing Translational Sciences (NCATS), 2008).
# “And” between values parts separate entries of the source, which are not always exact repeats. Identical values can stand only once. The campaign covered roughly 220,000 compounds. About 16,000 (7.3%) were called active. Inconclusive means that the source gave no clear call. Such entries were picked first, then a sample of the others. Calls come from the whole dose curve; as a rule, active = well fitted inhibition curve with a large enough effect (not every such curve was filed as active); inconclusive = small, poorly fitted or top-dose-only effect, or another doubt; inactive = no such curve, though single readings can be large or run the other way. No potency is given beside an inconclusive call; the fits are too rough. A structure can be active in one record and inactive in another.
# Molecular target: Aldehyde dehydrogenase 1A1 (Homo sapiens) (UniProt P00352)
# Chain of UniProt P00352 (P00352 whole entry, looked up): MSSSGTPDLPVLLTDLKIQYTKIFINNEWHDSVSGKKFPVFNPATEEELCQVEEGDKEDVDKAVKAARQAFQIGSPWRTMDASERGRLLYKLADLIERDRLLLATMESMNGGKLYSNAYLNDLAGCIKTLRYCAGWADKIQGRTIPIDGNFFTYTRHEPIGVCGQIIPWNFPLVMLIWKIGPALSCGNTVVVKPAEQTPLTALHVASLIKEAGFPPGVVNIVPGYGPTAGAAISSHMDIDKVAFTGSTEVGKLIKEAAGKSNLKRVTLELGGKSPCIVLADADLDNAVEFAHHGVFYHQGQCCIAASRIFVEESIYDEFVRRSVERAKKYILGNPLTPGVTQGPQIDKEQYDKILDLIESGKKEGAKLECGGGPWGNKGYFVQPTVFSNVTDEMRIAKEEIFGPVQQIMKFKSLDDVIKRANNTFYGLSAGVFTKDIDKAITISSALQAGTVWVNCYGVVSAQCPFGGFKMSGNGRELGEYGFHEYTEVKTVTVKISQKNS
# Assay: qHTS Assay for Inhibitors of Aldehyde Dehydrogenase 1 (ALDH1A1);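 for activity, negative = inhibition: plate controls were no enzyme wells and a reference inhibitor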
# Conditions: Purified ALDH1A1, NADH fluorescence, propionaldehyde substrate; series mostly up to 75.3 µM; activity, negative = inhibition: at the top concentration
# Potency is the fitted concentration of half-maximal effect; tags give direction and shape of the fitted curve.
Structure (SMILES),Potency,"activity, negative = inhibition"
COc1cc2c(C(=O)N3CCN(C4CCCCC4)CC3)cn(CC(C)C)c(=O)c2cc1OC,active: 22.4 µM,
COc1ccc(-c2nnc(SCC(=O)Nc3ccc4c(c3)OCCO4)n2N)cc1OC,,inactive: 4.86%
COc1ccc([N+](=O)[O-])cc1NC(=O)CSCc1ccc(Br)cc1,"inconclusive [inhibitor, single point]",
COc1ccc(/C=C/C(=O)c2cccs2)c(OC)c1,"inconclusive [inhibitor, single point]",
O=C(Nc1nccs1)c1cn(-c2ccccc2)nc1-c1ccncc1,"inconclusive [inhibitor, single point]",
Cc1[nH]nc2c1/C(=N/O)CC(c1ccccc1)C2 (stereo unspecified),,inactive: -11%
O=C(Cl)c1cccc([N+](=O)[O-])c1,active: 11.2 µM,
CC1C/C(=N/NC(=O)c2cccs2)CC(C)(C)C1 (stereo unspecified),"inconclusive [inhibitor, single point]",
CN(CC(=O)OCC(N)=O)S(=O)(=O)c1ccc(Cl)cc1,,inactive: 6.18%
N#Cc1ccc(-c2ccccc2)nc1SCC(=O)c1cc2ccccc2oc1=O,"inconclusive [inhibitor, single point]",
O=C(Nc1ccc(NC(=S)NC(=O)c2ccccc2F)cc1)c1cccs1,"inconclusive [inhibitor, single point]",
Cc1sc2nc(CSc3nnnn3-c3ccc(Cl)cc3)[nH]c(=O)c2c1C,"inconclusive [inhibitor, partial curve]",
CN(CCC#N)C(=O)COC(=O)c1c2c(nc3ccccc13)/C(=C/c1ccco1)CC2,"inconclusive [inhibitor, single point]",
COc1ccc(C(C(=O)NC2CCCC2)N(C(=O)c2ccoc2C)c2ccc(C)c(C)c2)cc1 (stereo unspecified),"inconclusive [inhibitor, single point]",
Cc1ccc(SCCC(=O)Nc2ccc(Br)c(C)c2)cc1,,inactive: -3.11%
Cc1nnc(Nc2ccc(C(=O)O)cc2)[nH]c1=O,,inactive: 3.28%
CCOc1ccc2nc(NC(=O)c3ccoc3C)sc2c1,"inconclusive [inhibitor, single point]",
COC(=O)CSc1nc2c(c(-c3ccc(O)cc3)c1C#N)CCCC2,"inconclusive [inhibitor, single point]",
c1ccc(CNc2ncnc3ccc(-c4cccnc4)cc23)cc1,"inconclusive [inhibitor, single point]",
O=C(CSc1nc(-c2ccccc2)c(-c2ccccc2)[nH]1)Nc1nccs1,,inactive: -6.82%
O=C(c1ccc(SCc2ccco2)c([N+](=O)[O-])c1)N1CCOCC1,,inactive: 3.71%
CC(C)(C)NS(=O)(=O)c1ccc2nc(NC(=O)Cc3cccs3)sc2c1,,inactive: 0.619%
O=C(NCCc1cn2ccccc2n1)C1CCCCC1,"inconclusive [inhibitor, partial curve]",
CC1CCN(c2c(NCc3ccc(C(=O)NCCc4ccc(Cl)cc4)cc3)c(=O)c2=O)CC1,,inactive: 5.95%

Structure (SMILES),Potency,"activity, negative = inhibition"
Cc1cc(F)ccc1NC(=O)c1ccc(NS(=O)(=O)c2cc(C(C)(C)C)ccc2C)cc1,active: 2.51 µM,
COC(=O)c1ccc(N2CCN(C(=O)c3ccccc3)CC2)c(NC(C)=O)c1,"inconclusive [inhibitor, single point]",
CCc1ccc(O)c(N=Cc2cccc(C)c2O)c1,"inconclusive [inhibitor, single point]",
CN1CCN(c2ncnc3sc(-c4ccccc4)cc23)CC1,"inconclusive [inhibitor, single point]",
Cc1noc(C)c1S(=O)(=O)N(CC(=O)Nc1ccc2c(c1)OCCO2)c1ccc(C(C)C)cc1,"inconclusive [inhibitor, single point]",
C[C@](N)(Cc1ccc(O)c(O)c1)C(=O)O,active: 17.8 µM and active: 5.62 µM,
CCCn1c(N2CCC(Cc3ccccc3)CC2)nc2c1c(=O)[nH]c(=O)n2C,"inconclusive [inhibitor, single point]",
N#Cc1cn(CC(=O)N2CCCc3ccccc32)c2ccccc12,,inactive: -7.97%
COc1ccc(NC(=O)[C@@H](NC(N)=O)C(C)C)cc1Cl,,inactive: 7.32%
CCn1c(=N)c(S(=O)(=O)c2ccccc2)cc2c(=O)n3ccccc3nc21,"inconclusive [inhibitor, partial curve]",
CCn1c(-c2cc(-c3ccc(C)cc3)nc3ccccc23)n[nH]c1=S,"inconclusive [inhibitor, single point]",
O=C(Nc1ccc(Cl)c(Cl)c1)OCc1cncs1,,inactive: -0.147%
CC(C)(C)N1C(=O)[C@H]2[C@H]3[C@H](O)[C@H](O)C/C(=N/OC[C@@H](O)COCc4ccco4)[C@@H]3CC[C@@H]2C1=O,,inactive: 7.75% [at 13.5 µM]
Cc1ccc(/C=N/NC(=S)NCCc2ccccc2)s1,"inconclusive [inhibitor, partial curve]",
O=S(=O)(c1ccc(-c2ccccc2)cc1)N1CCCC1,"inconclusive [inhibitor, single point]",
Cc1ccc(OCCCC(=O)Nc2ccc(Br)cc2)cc1,,inactive: -1.4%
O=C(CCC1CCCCC1)Nc1ccccc1C(=O)N1CCOCC1,"inconclusive [inhibitor, partial curve, poor fit]",
Cc1cccc(-n2cnc3cc([N+](=O)[O-])ccc32)c1,"inconclusive [inhibitor, single point]",
Cc1ccc2nc3cc([N+](=O)[O-])cc([N+](=O)[O-])c3cc2c1,,inactive: 7.27%
Cn1nnnc1SCCNCc1ccccc1OCc1ccccc1,"inconclusive [inhibitor, single point]",
Cn1cc(/C=N/Nc2ccccc2)c2ccccc21,active: 8.91 µM,
COc1ccc(C(=O)N2CCOC2CNC(=O)C(=O)NCc2ccc3c(c2)OCO3)cc1 (stereo unspecified),,inactive: 5.65%
O=C1/C(=N\O)Cc2ccccc21,"inconclusive [inhibitor, single point]",
Cc1nn(-c2ccc(F)cc2)c(Cl)c1/C=C(\CC(=O)O)c1nc2ccccc2s1,"inconclusive [inhibitor, single point]",

Structure (SMILES),Potency,"activity, negative = inhibition"
O=c1c(Cl)c(O)c2cccc3c4ccccc4n1c23,"inconclusive [inhibitor, partial curve]",
CC(=O)c1ccc(S(=O)(=O)Nc2cccc(S(=O)(=O)NC3=NCCC3)c2)cc1,"inconclusive [inhibitor, single point]",
COc1ccc(NC(=S)Nc2ccc3cn[nH]c3c2)cc1,"inconclusive [inhibitor, partial curve, poor fit]",
CN1C(=O)c2ccccc2Sc2ccc(NC(=O)N3CCOCC3)cc21,"inconclusive [inhibitor, single point]",
COC1=C(OC)c2ccccc2C(C(=O)O)N/C1=C(/C)Nc1ccncc1 (stereo unspecified),"inconclusive [inhibitor, single point]",
Cc1ccc(-n2c(Cc3cccn3C)nnc2SCC(=O)NCc2ccc3c(c2)OCO3)cc1,"inconclusive [inhibitor, single point]",
N#CC1=C(N)OC2=C(CN(Cc3ccccc3)C/C2=C\c2cccnc2)C1c1cccnc1 (stereo unspecified),active: 1.26 µM,
CCOC(=O)C1=NN(C(=O)c2ccccc2)C(O)(c2ccc(C)cc2)C1 (stereo unspecified),,inactive: -7.92%
CN1CCN(c2ccc(C(=O)c3ccccc3)cc2[N+](=O)[O-])CC1,,inactive: 0.381%
CC(/C=C/c1ccc(C)o1)=C\C(=O)O,active: 20 µM,
Cc1ccc(-c2nc3c(c(=O)c4ccccc4n3C)c(=O)n2-c2ccccc2)cc1,"inconclusive [inhibitor, partial curve]",
COc1ccc(NC(=O)c2csc(Cc3ccccc3)n2)cc1,"inconclusive [inhibitor, single point]",
O=C(Nc1cnc2sc3c(n2c1=O)CCCC3)c1ccc(F)cc1,"inconclusive [inhibitor, single point]",
CN(C)c1ccccc1C(=O)c1ccccc1N(C)C,"inconclusive [inhibitor, single point]",
Cc1ccc(S(=O)(=O)N2CCC(=O)N(C(COCc3cccc(Cl)c3)C(C)C)CC2)cc1 (stereo unspecified),"inconclusive [inhibitor, single point]",
Cc1cc([N+](=O)[O-])nn1CC(=O)N1CCN(Cc2ccccc2)CC1,"inconclusive [inhibitor, single point]",
COc1cccc(/C=C/C(=O)OC(C)C(=O)Nc2c(C)n(C)n(-c3ccccc3)c2=O)c1 (stereo unspecified),"inconclusive [inhibitor, partial curve]",
Cc1noc(C)c1COc1ccc(C(=O)OCC(=O)NC23CC4CC(CC(C4)C2)C3)cc1,"inconclusive [inhibitor, single point]",
N#C/C=C(/N)N1CCN(c2ccc(Cl)c(Cl)c2)CC1,"inconclusive [inhibitor, single point]",
COc1cccc(-c2ccc3ncnc(NCc4ccccc4OC)c3c2)c1,"inconclusive [inhibitor, single point]",
Cc1ccc(S(=O)(=O)N[C@@H](Cc2ccccc2)C(=O)CCl)cc1,active: 1 µM and active: 398 nM and active: 794 nM,
C=CCN=C(NC#N)SCc1ccccc1,,inactive: 8.08%
COc1ccc(NC(=O)CSc2nc3c(c(-c4cccs4)c2C#N)CN(C)CC3)cc1OC,active: 14.1 µM,
